The source of these data is publication PMC7229227.

Amino acid sequences for entries named in this document (tags omitted).
UniProt O14187: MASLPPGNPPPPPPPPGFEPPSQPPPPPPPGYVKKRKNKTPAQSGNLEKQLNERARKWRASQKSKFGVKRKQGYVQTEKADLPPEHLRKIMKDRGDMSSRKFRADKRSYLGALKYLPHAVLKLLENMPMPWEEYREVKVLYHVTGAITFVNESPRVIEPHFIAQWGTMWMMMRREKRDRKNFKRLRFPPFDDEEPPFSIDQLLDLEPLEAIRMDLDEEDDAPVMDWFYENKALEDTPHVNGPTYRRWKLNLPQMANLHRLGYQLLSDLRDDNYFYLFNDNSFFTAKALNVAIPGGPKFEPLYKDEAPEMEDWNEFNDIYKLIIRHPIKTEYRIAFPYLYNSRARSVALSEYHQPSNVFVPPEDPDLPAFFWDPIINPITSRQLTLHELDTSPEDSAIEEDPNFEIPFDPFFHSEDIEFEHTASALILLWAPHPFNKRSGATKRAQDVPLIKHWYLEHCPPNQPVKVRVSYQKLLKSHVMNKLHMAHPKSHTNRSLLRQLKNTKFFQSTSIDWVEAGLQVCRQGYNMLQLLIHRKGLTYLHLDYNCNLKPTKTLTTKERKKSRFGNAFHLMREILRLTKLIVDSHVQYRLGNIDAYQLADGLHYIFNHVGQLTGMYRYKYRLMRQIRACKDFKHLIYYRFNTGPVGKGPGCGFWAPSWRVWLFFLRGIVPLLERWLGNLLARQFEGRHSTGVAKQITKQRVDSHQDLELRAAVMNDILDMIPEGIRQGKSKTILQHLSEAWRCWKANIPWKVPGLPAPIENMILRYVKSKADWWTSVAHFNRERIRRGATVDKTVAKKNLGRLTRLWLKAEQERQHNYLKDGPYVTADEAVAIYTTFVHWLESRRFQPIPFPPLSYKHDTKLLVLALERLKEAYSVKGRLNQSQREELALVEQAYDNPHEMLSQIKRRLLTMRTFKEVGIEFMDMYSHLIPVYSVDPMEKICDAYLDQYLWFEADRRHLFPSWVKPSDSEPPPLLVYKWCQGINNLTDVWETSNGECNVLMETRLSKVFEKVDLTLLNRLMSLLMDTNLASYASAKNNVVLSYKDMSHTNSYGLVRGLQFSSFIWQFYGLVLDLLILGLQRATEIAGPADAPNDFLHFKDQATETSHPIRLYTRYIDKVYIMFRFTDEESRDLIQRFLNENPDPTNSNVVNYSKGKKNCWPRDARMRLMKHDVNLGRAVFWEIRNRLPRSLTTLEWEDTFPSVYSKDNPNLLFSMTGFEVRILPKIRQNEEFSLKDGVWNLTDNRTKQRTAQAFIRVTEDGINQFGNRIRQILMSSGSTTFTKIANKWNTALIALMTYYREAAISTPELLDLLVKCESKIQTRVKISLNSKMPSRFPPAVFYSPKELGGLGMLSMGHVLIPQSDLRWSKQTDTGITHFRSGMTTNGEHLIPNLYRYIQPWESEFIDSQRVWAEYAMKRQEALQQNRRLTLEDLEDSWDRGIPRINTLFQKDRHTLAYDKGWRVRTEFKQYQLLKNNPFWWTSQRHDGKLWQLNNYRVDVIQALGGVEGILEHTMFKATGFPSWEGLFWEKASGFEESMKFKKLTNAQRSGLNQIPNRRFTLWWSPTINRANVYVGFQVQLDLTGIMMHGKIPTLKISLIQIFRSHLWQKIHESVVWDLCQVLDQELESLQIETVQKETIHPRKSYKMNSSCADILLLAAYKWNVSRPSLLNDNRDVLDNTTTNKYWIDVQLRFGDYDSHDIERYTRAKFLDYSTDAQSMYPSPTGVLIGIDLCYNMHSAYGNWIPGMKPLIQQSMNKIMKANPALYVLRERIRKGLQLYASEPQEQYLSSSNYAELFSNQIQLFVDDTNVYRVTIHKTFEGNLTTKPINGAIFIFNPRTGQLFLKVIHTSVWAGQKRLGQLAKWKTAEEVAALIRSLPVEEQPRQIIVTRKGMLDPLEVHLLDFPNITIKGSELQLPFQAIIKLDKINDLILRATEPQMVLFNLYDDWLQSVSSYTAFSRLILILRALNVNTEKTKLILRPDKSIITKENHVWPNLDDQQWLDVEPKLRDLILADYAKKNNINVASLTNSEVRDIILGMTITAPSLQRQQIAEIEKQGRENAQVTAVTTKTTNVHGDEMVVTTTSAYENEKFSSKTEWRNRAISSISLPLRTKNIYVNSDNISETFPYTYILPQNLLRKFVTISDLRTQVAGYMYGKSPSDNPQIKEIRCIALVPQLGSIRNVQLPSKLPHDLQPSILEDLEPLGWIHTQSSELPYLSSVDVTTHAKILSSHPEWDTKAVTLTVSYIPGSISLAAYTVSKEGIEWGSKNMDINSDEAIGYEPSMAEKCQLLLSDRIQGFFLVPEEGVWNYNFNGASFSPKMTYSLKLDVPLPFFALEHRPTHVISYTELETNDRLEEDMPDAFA
UniProt O94529: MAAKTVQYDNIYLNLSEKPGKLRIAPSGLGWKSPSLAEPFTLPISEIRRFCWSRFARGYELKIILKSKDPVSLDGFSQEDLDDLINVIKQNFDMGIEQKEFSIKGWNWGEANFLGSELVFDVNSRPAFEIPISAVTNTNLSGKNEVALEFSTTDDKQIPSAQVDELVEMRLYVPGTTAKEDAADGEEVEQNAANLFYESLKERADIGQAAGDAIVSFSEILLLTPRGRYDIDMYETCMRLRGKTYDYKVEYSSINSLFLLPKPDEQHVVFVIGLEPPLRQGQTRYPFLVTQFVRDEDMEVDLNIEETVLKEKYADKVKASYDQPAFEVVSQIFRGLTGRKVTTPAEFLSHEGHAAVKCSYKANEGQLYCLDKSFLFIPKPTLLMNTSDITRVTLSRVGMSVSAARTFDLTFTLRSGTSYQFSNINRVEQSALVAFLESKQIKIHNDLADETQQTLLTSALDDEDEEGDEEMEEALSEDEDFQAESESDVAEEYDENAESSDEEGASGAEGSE

These are yes or no findings as the source states them, for the method shown. In cells and extracts the contact can be indirect. Some binding calls cover weakened binding; strength is not graded here. Tags and fused reporters may be left off the sequences shown.

Experiment [1] deals with T1, Pir2-GFP (S. pombe) (UniProt O94326).
T1 sequence: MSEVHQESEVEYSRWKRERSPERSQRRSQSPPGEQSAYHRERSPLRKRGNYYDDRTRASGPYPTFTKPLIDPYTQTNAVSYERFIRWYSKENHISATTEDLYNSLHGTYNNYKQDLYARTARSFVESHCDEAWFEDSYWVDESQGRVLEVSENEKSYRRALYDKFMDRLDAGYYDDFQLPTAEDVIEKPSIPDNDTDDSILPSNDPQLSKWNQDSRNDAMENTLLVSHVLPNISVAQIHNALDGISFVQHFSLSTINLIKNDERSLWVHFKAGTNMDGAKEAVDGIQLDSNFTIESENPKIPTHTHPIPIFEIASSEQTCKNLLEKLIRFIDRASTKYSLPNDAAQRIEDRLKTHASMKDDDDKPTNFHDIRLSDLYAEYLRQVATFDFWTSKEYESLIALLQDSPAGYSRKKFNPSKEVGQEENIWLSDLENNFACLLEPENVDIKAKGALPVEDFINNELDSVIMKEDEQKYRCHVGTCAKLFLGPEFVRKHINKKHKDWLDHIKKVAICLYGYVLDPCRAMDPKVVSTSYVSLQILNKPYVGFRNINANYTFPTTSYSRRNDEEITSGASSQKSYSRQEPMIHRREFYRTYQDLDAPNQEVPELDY
The experiment can be described thus: co-sedimentation; S. pombe lysate (20 mM Tris pH 7.5, 137 mM NaCl, 10% glycerol, 0.5% NP40, 2 mM EDTA), 150 µg on a linear 20–50% glycerol gradient, 81,400 × g, 19 h; fractions by western blot. (A western blot detects proteins with antibodies after separation by electrophoresis.)

Experiment [2] has as its target T1, Pir2-GFP (S. pombe). In words: co-IP; S. pombe lysates (50 mM Tris-HCl pH8, 150 mM NaCl, 10% glycerol, 1% NP-40, 5 mM EDTA) incubated with anti-GFP on protein A magnetic beads or IgG sepharose, 2 h, 4 °C; western blot; Hrr1-TAP/Pir2-GFP also in the cwf10-1 mutant.
The target in experiment [3] is T1, Pir2-GFP (S. pombe). The experiment can be described thus: co-IP; as the S. pombe co-IP, proteins bound to beads washed and treated with 50 U/ml Benzonase (DNA and RNA nuclease) for 30 min.
Experiment [4] concerns the target T1, Pir2-GFP (S. pombe). The experiment can be described thus: co-sedimentation; S. pombe lysate (20 mM Tris pH 7.5, 137 mM NaCl, 10% glycerol, 0.5% NP40, 2 mM EDTA), 150 µg on a linear 20–50% glycerol gradient, 81,400 × g, 19 h; fractions by western blot. The source holds these as a separate data set.
Experiment [5] deals with T1, Pir2-GFP (S. pombe). In words: co-IP; S. pombe lysates (50 mM Tris-HCl pH8, 150 mM NaCl, 10% glycerol, 1% NP-40, 5 mM EDTA) incubated with anti-GFP on protein A magnetic beads or IgG sepharose, 2 h, 4 °C; western blot; Hrr1-TAP/Pir2-GFP also in the cwf10-1 mutant. The source holds these as a separate data set.

Consider Spp42-HA (from UniProt O14187 1-2363), for which the binding result in the experiment with Pir2-GFP (S. pombe) [1] was “no binding”.

Regarding Pob3-MYC (from UniProt O94529 1-512), the binding result with Pir2-GFP (S. pombe) [2] is listed as “binds”; with Pir2-GFP (S. pombe) [3], “no binding (condition: with Benzonase (50 U/ml, 30 min))”.

B1: Cwf21 (protein, UniProt O14161 1-293)
chain: MSYNGIGLPTPRGSGTNGYVMRNLSHVKKYDKNTNLQSNRNAKALEKRVQDPSISEHECRRQIESKLLLYREQLLEEVSSQHSTDAAASDSNTNFGTENPKPPKAIIKDEQSQSKTKSLDEADVEILVQKYREQLLKELQLQKSTEKGKNFESILQPQKRKETRGFHSKNDDDGRLEERDDLRSSVDDDYYDYPRYSERKSLNSKRHVDNYNENRRRHYDSYSSYDELERRRSSNESYSRRSELPRRDYNRHDERERYSYHRRRERSNSPSYTKNESIPVVDRDSSPEGGEIV
Consider B1, for which the binding entry with Pir2-GFP (S. pombe) [4] is listed as “binds”.

B2: Cwf10-FLAG (protein, UniProt O94316 1-984)
chain: MMEEDLYDEFGNYIGPENEEDEEELFPQAPSPTIAQVPSFEEVIPDEELEDVERAEEMALSHLEPQNAVVLHEDKQYYPSAEEVYGSNVDIMVQEQDTQPLSQPIIEPIRHKRIAIETTNVPDTVYKKEFLFGLLTGTDDVRSFIVAGHLHHGKSALLDLLVYYTHPDTKPPKRRSLRYTDTHYLERERVMSIKSTPLTLAVSDMKGKTFAFQCIDTPGHVDFVDEVAAPMAISDGVVLVVDVIEGVMINTTRIIKHAILHDMPIVLVLNKVDRLILELRLPPNDAYHKLRHVIDEVNDNICQISKDLKYRVSPELGNVCFASCDLGYCFTLSSFAKLYIDRHGGIDVDLFSKRLWGDIYFDSKTRKFAKQSLDGSGVRSFVHFILEPLYKLHTLTISDEAEKLKKHLSSFQIYLKPKDYLLDPKPLLQLICASFFGFPVGFVNAVTRHIPSPRENAARKASQSYIGPINSSIGKAILEMSREESAPLVMHVTKLYNTVDANNFYAFARVYSGQVKKGQKVKVLGENYSLEDEEDMVVAHIAEICVPCARYRLHVDGAVAGMLVLLGGVDNSISKTATIVSDNLKDDPYIFRPIAHMSESVFKVAVEPHNPSELPKLLDGLRKTNKSYPLSITKVEESGEHTIFGTGEMYMDCLLYDLRTLYSEIEIRVSDPVARFCETAVDTSSIKCFSDTPNKKNRITMVVEPLEKGISNDIENGKVNINWPQKRISEFFQKNYDWDLLASRSIWAFGPDDRGTNILRDDTLSTDVDKNVLNSVKEYIKQGFQWGTREGPLCDETIRNVNFRLMDVVLAPEQIYRGGGQIIPTARRVCYSSFLTASPRLMEPVYMVEVHAPADSLPIIYDLLTRRRGHVLQDIPRPGSPLYLVRALIPVIDSCGFETDLRVHTQGQAMCQMVFDHWQVVPGDPLDKSIKPKPLEPARGSDLARDFLIKTRRRKGLVEDVSTTRYFDQEMIDSLKEAGVVLSL
Take B2: the binding entry with Pir2-GFP (S. pombe) [4] and with Pir2-GFP (S. pombe) [5] was “binds” in each case.

B3: Cdc5-HA (protein, UniProt P39964 1-757)
chain: MVVLKGGAWKNTEDEILKAAVSKYGKNQWARISSLLVRKTPKQCKARWYEWIDPSIKKTEWSREEDEKLLHLAKLLPTQWRTIAPIVGRTATQCLERYQKLLDDLEAKENEQLGLISGEGAEAAAPVNDPNSRLRFGEAEPNLETLPALPDAIDMDEDEKEMLSEARARLANTQGKKAKRKDREKQLELTRRLSHLQKRRELKAAGINIKLFRRKKNEMDYNASIPFEKKPAIGFYDTSEEDRQNFREKREADQKIIENGIRNNEMESEGRKFGHFEKPKPIDRVKKPNKDAQEEKMRRLAEAEQMSKRRKLNLPSPTVSQDELDKVVKLGFAGDRARAMTDTTPDANYSTNLLGKYTQIERATPLRTPISGELEGREDSVTIEVRNQLMRNREQSSLLGQESIPLQPGGTGYTGVTPSHAANGSALAAPQATPFRTPRDTFSINAAAERAGRLASERENKIRLKALRELLAKLPKPKNDYELMEPRFADETDVEATVGVLEEDATDRERRIQERIAEKERLAKARRSQVIQRDLIRPSVTQPEKWKRSLENEDPTANVLLKEMIALISSDAINYPFGNSKVKGTANKVPDLSNEEIERCRLLLKKEIGQLESDDYIQFEKEFLETYSALHNTSSLLPGLVIYEEDDEDVEAAEKFYTNDIQRDLAKKALECNKLENRVYDLVRSSYEQRNFLIKKISHAWKALQTERKNLTCYEFLYNQERLALPNRLEAAEIELSKMQQIEAYAQQDYARVTGQN
Take B3: in the experiment with Pir2-GFP (S. pombe) [4], the binding result is “no binding”.

B4: Cbc1 (FLAG-tagged) (protein, UniProt O14253 1-780)
chain: MSSYRGSTRPRKRTREGENYGFRPHRGNSQELLAARIKKDITFLADPRGNSVAADDINYVAMSLSREANDPETISTILDCIQTTAFIIPVKIPHLATLIIRASLRVPLILEKAAAYFCLQYFTNLNSFLYYEAKVDLRMLICMSFALQPGTLKPLFSLLADAISKETKPSVWGDNFLRIILINLPYFIAANNDLGKKDFANEILDQCEIYVRHRKSSITLSNPLSIHDNLSEEELDLLYKQLILSRENDFTFPYISQPWKFFESDFVHIVPVSPSIPEWTFQPTPQQNELPSFKRFFELFNNFEIRTTPDASDVAASIFRDISVDVINHLEFNRVEAAQVLTDLDVYFTYKTFALRGTPVNELPNLDPSESRWKAEDIIVEAVLGELLGSQNTTYKPVYYHSLLIECCRIAPKILAPTFGRVIRLMYTMSSDLPLQTLDRFIDWFSHHLSNFNFHWKWNEWIPDVELDDLHPKKVFMRETITRELILSYYTRISDSLPEELRCLLGEQPSGPNFVYENETHPLYQQSSQIIEALRLHKPLEELDIILQSEEIQNSETSAVRLVMSCAYSLGSRSFSHALNVFEKHLNTLKHFSRKSLDSEIEVVDELFSFWKLQPFNAVMWLDKMLNYSIISITSIIEWLIKQDVTIWSRSYTWSLVNTTFNKLAARLRRSVSNKEDSSLINEANEEKEIVTNLLLSALRALISENAENIWVSHWLNLMLKYVESNFLSVKKDTIEEANEPVQENTSEEQEDTKMQPVDAVDEQPSENNQTAADATNEEK
As to B4, the binding result in the experiment with Pir2-GFP (S. pombe) [4] is “binds”.

B5: Clr3-MYC (enzyme, UniProt P56523 1-687)
chain: MLASNSDGASTSVKPSDDAVNTVTPWSILLTNNKPMSGSENTLNNESHEMSQILKKSGLCYDPRMRFHATLSEVDDHPEDPRRVLRVFEAIKKAGYVSNVPSPSDVFLRIPAREATLEELLQVHSQEMYDRVTNTEKMSHEDLANLEKISDSLYYNNESAFCARLACGSAIETCTAVVTGQVKNAFAVVRPPGHHAEPHKPGGFCLFNNVSVTARSMLQRFPDKIKRVLIVDWDIHHGNGTQMAFYDDPNVLYVSLHRYENGRFYPGTNYGCAENCGEGPGLGRTVNIPWSCAGMGDGDYIYAFQRVVMPVAYEFDPDLVIVSCGFDAAAGDHIGQFLLTPAAYAHMTQMLMGLADGKVFISLEGGYNLDSISTSALAVAQSLLGIPPGRLHTTYACPQAVATINHVTKIQSQYWRCMRPKHFDANPKDAHVDRLHDVIRTYQAKKLFEDWKITNMPILRDSVSNVFNNQVLCSSNFFQKDNLLVIVHESPRVLGNGTSETNVLNLNDSLLVDPVSLYVEWAMQQDWGLIDINIPEVVTDGENAPVDILSEVKELCLYVWDNYVELSISKNIFFIGGGKAVHGLVNLASSRNVSDRVKCMVNFLGTEPLVGLKTASEEDLPTWYYRHSLVFVSSSNECWKKAKRAKRRYGRLMQSEHTETSDMMEQHYRAVTQYLLHLLQKARPTSQ
Take B5: the binding result with Pir2-GFP (S. pombe) [5] is “binds”.
